Results: the supplement of paper PMC10338343
± gives the standard deviation. The list shows a part of the results, in another mix than the full data.

Test system: MIWI (PIWIL1) piRISC loaded with L1MC piRNA (30 nt)
Assay: pre-steady-state target cleavage rate (min^-1); MIWI and MILI are mouse PIWI proteins and EfPiwi is from a freshwater sponge; tags in brackets are library labels; higher = faster piRNA-guided slicing of the target
Conditions: guide: L1MC piRNA 5'p-UAACUAAAUACUAUGCAAGCUGUAGGUCCU
How it was run: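 Sequencing of uncleaved targets, normalised to depth and to weakly complementary targets, was the readout of this Cleave-'n-Seq assay. A transcribed, DNA-blocked target RNA library (0.1 nM) was mixed with 1 nM active affinity-purified piRISC carrying one synthetic guide, with or without 500 nM GTSF1 partner protein, in HEPES–potassium acetate buffer at 33 °C for 0–8 or 0–960 min. Three trials were pooled, k3 was capped at 0.0001 min^-1, and a burst-and-steady-state fit gave the pre-steady-state cleavage rate.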

[1] = auxiliary factor: 500 nM mouse GTSF1
[2] = auxiliary factor: none (no GTSF1)

Sequence: UCCUGGAUGAGACUUGCAUAGUAUUUAGUUA
- pre-steady-state target cleavage rate [1]: 0.22 ± 0.023
- pre-steady-state target cleavage rate [2]: 0.00787 ± 0.0023

Sequence: UCCUGCUAAGCUUGCAUAGUAUUUAGUUA
- pre-steady-state target cleavage rate [1]: 0.442 ± 0.042
- pre-steady-state target cleavage rate [2]: 0.0247 ± 0.0051

Sequence: UCCUCCUACAGCUUGCUUUGUAUUUAGUUA
- pre-steady-state target cleavage rate [1]: 0.212 ± 0.018
- pre-steady-state target cleavage rate [2]: 0.00483 ± 0.0015

Sequence: UCCUGGAUGUGCUUGGAUAGUUUUUAGUUA
- pre-steady-state target cleavage rate [1]: 0.016 ± 0.0062
- pre-steady-state target cleavage rate [2]: 0.00996 ± 0.0031

Sequence: UCCUGGAACAGCUUGCAUAGUUAUUUAGUUA
- pre-steady-state target cleavage rate [1]: 0.0374 ± 0.0091
- pre-steady-state target cleavage rate [2]: 0.00591 ± 0.0025

Sequence: UCCUGGAUGUGCUUGCAUAGUAUUCAGUUA
- pre-steady-state target cleavage rate [1]: 0.122 ± 0.017
- pre-steady-state target cleavage rate [2]: 0.0161 ± 0.004

Sequence: UGCACCUACAGCUUGCAUAGUAAUUAGUUA
- pre-steady-state target cleavage rate [1]: 0.945 ± 0.091
- pre-steady-state target cleavage rate [2]: 0.0309 ± 0.0082

Sequence: AGGACCUACUCCUUGCAUAGUAUUUAGAAA
- pre-steady-state target cleavage rate [1]: 0.381 ± 0.052
- pre-steady-state target cleavage rate [2]: 0.0124 ± 0.0034

Sequence: UCCUCCUACAGCUAGCAUAGUUUUUAGUUA
- pre-steady-state target cleavage rate [1]: 0.315 ± 0.023
- pre-steady-state target cleavage rate [2]: 0.0114 ± 0.0022

Sequence: UCCUCCUACAUGCUUGCAUAGUAUUUAGUUA
- pre-steady-state target cleavage rate [1]: 0.453 ± 0.028
- pre-steady-state target cleavage rate [2]: 0.034 ± 0.006

Sequence: UCCUGGAUGUCGUUGCACAGUAUUUAGUUA
- pre-steady-state target cleavage rate [1]: 0.0315 ± 0.0065
- pre-steady-state target cleavage rate [2]: 0.00358 ± 0.0028

Sequence: UCCUCGUACAGCUUGCAUAGUAUUUACUUA
- pre-steady-state target cleavage rate [1]: 0.248 ± 0.022
- pre-steady-state target cleavage rate [2]: 0.0279 ± 0.0037

Sequence: UCCUGGAAUAGCUUGCAUAGUAUUUAGUUA
- pre-steady-state target cleavage rate [1]: 0.819 ± 0.031
- pre-steady-state target cleavage rate [2]: 0.0683 ± 0.014

Sequence: UCCUCCUACAGCUUGCAUAGUGUUUAGUUA
- pre-steady-state target cleavage rate [1]: 0.874 ± 0.031
- pre-steady-state target cleavage rate [2]: 0.0506 ± 0.01

Sequence: UCGACCUAUCAGCUUGCAUAGUAUUUAGUUA
- pre-steady-state target cleavage rate [1]: 1.61 ± 0.06
- pre-steady-state target cleavage rate [2]: 0.0851 ± 0.018

Sequence: AGGACCUAGUGCUUGCAUAGUAUUUUCAAA
- pre-steady-state target cleavage rate [1]: 0.0853 ± 0.021
- pre-steady-state target cleavage rate [2]: 0.00244 ± 0.0023

Sequence: AGGACCUACAGCUUGCAUAGUAUUUAGGUA
- pre-steady-state target cleavage rate [1]: 0.386 ± 0.059
- pre-steady-state target cleavage rate [2]: 0.0201 ± 0.007

Sequence: AGGACCUACAGCUUGCAUUGUAUUAAGUUA
- pre-steady-state target cleavage rate [1]: 0.455 ± 0.041
- pre-steady-state target cleavage rate [2]: 0.0136 ± 0.0037

Sequence: UCGACCUAAGCUUGCAUAGUAUUUAGUUA
- pre-steady-state target cleavage rate [1]: 1.18 ± 0.055
- pre-steady-state target cleavage rate [2]: 0.0432 ± 0.009

Sequence: UCCUGGAUCAGCUUGCAUACUAUUUACUUA
- pre-steady-state target cleavage rate [1]: 0.175 ± 0.028
- pre-steady-state target cleavage rate [2]: 0.0103 ± 0.0022
